The list shows a part of the results.
Legend:
[1] = system: HSkMC (human skeletal muscle cells); test: cytotoxicity call (relative viability < 0.9); conditions: 10 µM
[2] = system: HepG2; test: cytotoxicity call (relative viability < 0.9); conditions: 10 µM
[3] = system: S. aureus RN4220; test: growth inhibition call (relative growth <= 0.2); conditions: 50 µM

Row | Structure (SMILES) | cytotoxicity call [1] | cytotoxicity call [2] | growth inhibition call [3]
1 | Cl.N=c1ccn2c(n1)OC1C(O)C(CO)OC12 (configuration not stated) | inactive | inactive | inactive
2 | C[C@@H]1CCCCO[C@H](CN(C)Cc2ccc3c(c2)OCO3)[C@H](C)CN([C@H](C)CO)C(=O)c2cc(NC(=O)C3CCCCC3)ccc2O1 | inactive | active | inactive
3 | CN1CC(=O)NC1=N | inactive | inactive | inactive
4 | C[C@@H]1CN([C@H](C)CO)C(=O)c2cc(NC(=O)Nc3ccc(C(F)(F)F)cc3)ccc2O[C@@H](C)CCCCO[C@@H]1CN(C)S(=O)(=O)c1cccs1 | inactive | inactive | inactive
